Screen size: about 150,000 compounds; about 540 (0.36%) showed an effect of 50% or more. The list shows a part of the results.
Tested on: Plasmodium falciparum
Experiment: Primary screen in NF54 nanoGlo assay, in single point, at 2uM, 72h; a lower Z score goes with more inhibition
Format: functional, Erythrocyte
Settings: timepoint 72 hour

Structure (SMILES) | % Inhibition [%] | Z score
Cc1cc(N2CCC3(CC2)CN(CCN2CC[C@H](N(C)C)C2)C(=O)O3)nc(N)n1 | -6 | 0.94
O=C(NCc1nc2cc(F)ccc2[nH]1)C1CNCC(C(=O)N2CCOCC2)C1 (stereo not drawn) | -3 | 0.48
Cn1ccnc(N2CCC(NCc3cccc4cnccc34)CC2)c1=O | 7 | -1.42
c1ccc2c(N3CCN(c4cc(NC5CC5)ncn4)CC3)cncc2c1 | -4 | 0.75
COc1ccc2[nH]c(CCN(C)c3cc(-c4nc(C)no4)ccn3)nc2c1 | -3 | 0.56
Cc1ccccc1-c1noc([C@H](C)S(=O)(=O)CCCC#N)n1 | -12 | 2.07
C[C@@H](CCNc1ccncc1F)N1CCN(C)CC1 | -4 | 0.8
Oc1ccc(-c2cncc3nccn23)cc1OC(F)(F)F | -6 | 1.25
CC1(C)CN(c2nc(-c3ccccn3)nc3sccc23)CCN1 | 19 | -3.26
Cc1cc(Br)cnc1NC[C@H](C)N1CCN(C)CC1 | 6 | -0.99
O=C(NC1CC(N2CCCCC2)C1)c1cc(-c2ccc3ccccc3c2)[nH]n1 (stereo not drawn) | -6 | 0.98
FC(F)(F)CN1CCC[C@@H]1CNc1ncnc2[nH]ccc12 | -12 | 2.6
C#CCN1CCC(NCC2(N3CCCCC3)CCCC2)CC1 | 3 | -0.62
CN(C)c1cc(C(F)(F)F)nc(N[C@H]2CCN(C(=O)C3CCCC3)C2)n1 | 9 | -1.42
Cc1ccc2ccccc2c1CN1CCC(NC2CCOCC2)CC1 | 15 | -2.6
Cc1cc(N2CCC(NCc3noc(-c4ccco4)n3)CC2)nc(C(C)C)n1 | -17 | 2.93
CCc1ccc2nc(NC[C@H]3CCCN3C)cc(C)c2c1 | -2 | 0.32
C[C@@H](c1ccc(-c2cnc3[nH]cnc3c2)cc1)N1CCCCC1 | -4 | 0.72
CCc1cc(C(=O)N2CCN(c3ccccc3-c3ccccc3)C(=O)C2)[nH]n1 | 6 | -1.29
CCNc1ccnc(NCC[C@H]2CN(c3cnn(C)c(=O)c3)CCO2)n1 | 6 | -1.26
Nc1nc2c(c(NCc3csc(-c4cnccn4)n3)n1)CCNCC2 | 1 | -0.15
O[C@H]1CCCN(CCCNc2nc3nonc3nc2N2CCCCCC2)C1 | -16 | 2.72
CC(=O)N(Cc1cncnc1)[C@H]1CCCN(Cc2cccc3c[nH]nc23)CC1 | 7 | -1.43
Nc1nc2c(c(NCc3nccn3Cc3ccccc3)n1)CCNCC2 | 6 | -1.06
Cc1ccc2cc(CNc3ccc4c(c3)C(=O)NC4)ccc2n1 | -16 | 2.75
Cc1cccc(-n2cc([C@H]3NC(C)(C)C(=O)N3CC(C)(C)C)c(C)n2)c1 | 5 | -0.81
Nc1nc2c(c(NCc3ccco3)n1)CCN(C(=O)[C@H]1CCCN1)CC2 | 9 | -1.55

Structure (SMILES) | % Inhibition [%] | Z score
Cc1ccc(F)c(CC(=O)N[C@@H]2C(=O)N(C)Cc3ccccc32)c1 | 19 | -3.26
OCc1ccc2c(CN3CCNCC3)c[nH]c2c1 | -3 | 0.66
CCOc1ccc(OCC(=O)N(C)C[C@]2(O)CCN(Cc3ccccc3)C2)cc1 | 2 | -0.54
c1ccc2c(c1)CCCN2CCN1CCC(N2CCCCC2)CC1 | -3 | 0.7
O=C(CCS(=O)(=O)c1ccccc1)N1CCN2C(COCC2C2CC2)C1 (stereo not drawn) | -2 | 0.42
COCCN1CCN(C(=O)Nc2ccc(-c3cc4ccccc4[nH]3)cc2)CC1 | -9 | 1.62
C[C@@H](CNc1nccc(N(C)C)n1)CN1CCCC1 | 3 | -0.72
Cc1nccn1-c1cccc(NCCCN2CCN(c3ncccn3)CC2)n1 | -3 | 0.5
CCN1CCN([C@H]2CCN(c3nc(-c4cccnc4)cs3)C2)CC1 | 7 | -1.52
O=C(NC[C@@H](CN1CCCC1)C1CC1)c1ccnn1CC(F)(F)F | -1 | 0.12
O=c1[nH]c(CN2CCC[C@H](c3c[nH]c4ncccc34)C2)nc2ccc(Cl)cc12 | -4 | 0.77
CCCCNc1cc(N2CCO[C@H](c3cnn(CC)c3)C2)nc(N)n1 | -5 | 1.05
COc1ccccc1-c1csc(C2CCN(CC[C@H]3CCCN3C)CC2)n1 | 34 | -5.23
COc1ccc2cc(C(=O)N3CCC4(CC3)C[C@@H](Oc3cnccn3)CCO4)[nH]c2c1 | -18 | 3.08
COc1ccc2oc([C@H](C)Nc3cc(-n4cccn4)nc(N)n3)c(C)c2c1 | -3 | 0.74
CCCN1CCC(NC(=O)c2cc(-c3ccccc3Cl)[nH]n2)CC1 | -3 | 0.4
Cc1nc2ccc(CNc3nnc(CCc4ccccc4)o3)cc2s1 | -1 | 0.2
COc1cc(CN2CC(c3noc(C)n3)C2)ccc1OC(C)C | 1 | -0.24
Cc1nc(CN2CCC[C@H](N(C)c3ncnc4[nH]ccc34)C2)no1 | 8 | -1.44
COc1cccc(OCCN2CCN(c3nc(NCc4ccco4)c4ccccc4n3)CC2)c1 | -13 | 1.97
CN1CCC(NC[C@H]2CCN(CC(F)(F)F)C2)CC1 | -3 | 0.5
CCCNc1cc(N2CCCC(CCC(=O)NCC3CCCN3CC)C2)ncn1 (stereo not drawn) | 4 | -0.86
Clc1cccnc1OC1CCC(NCc2ccc(N3CCCC3)nc2)CC1 (stereo not drawn) | -2 | 0.25
CN(C)CCCN1CCN(Cc2cc3ccccc3[nH]2)CC1 | 13 | -2.23
Fc1cccc(Cl)c1CN1CCC(NC[C@H]2CCCOC2)CC1 | 46 | -9.19
OC1(Cn2ccnc2)CCN(Cc2cnc(NC[C@H]3CCCO3)nc2)CC1 | -7 | 1.01
COc1ccc2nc(C(=O)NCC3CCN(C4CCOCC4)CC3)ccc2c1 | 10 | -2.16

— ChEMBL document CHEMBL5308541, “MAIP: An Open-Source Tool to Enrich High-Throughput Screening Output and Identify Novel, Druglike Molecules with Antimalarial Activity” (ACS Med Chem Lett, 2023)
